# Data reported in the supplement of paper PMC12217912.
# The other results are listed elsewhere or left out. The full chains were built here from the parent and the listed change. Values near 0.05 are background.
# B1: TEV protease; numbered along this chain (parent)
# chain: MGESLFKGPRDYNPISSSICHLTNESDGHTTSLYGIGFGPFIITNKHLFRRNNGTLVVQSLHGVFKVKDTTTLQQHLVDGRDMIIIRMPKDFPPFPQKLKFREPQREERICLVTTNFQTKSMSSMVSDTSCTFPSGDGIFWKHWIQTKDGQCGSPLVSTRDGFIVGIHSASNFTNTNNYFTSVPKNFMELLTNQEAQQWVSGWRLNADSVLWGGHKVFMVKPEEPFQPVKEATQL
# Variants of: B1
# Test: raw area under fraction-flipped curve 0-4 h after induction (AUC4h, not background-subtracted), DNA-recorder readout of cleavage of the substrate (dimensionless); higher = more cleavage of the substrate by the protease variant
# Conditions: temperature: 34 °C; time window: 0-4 h after rhamnose induction
# Protocol: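 In vivo DNA recorder in E. coli TOP10(DE3) ΔrhaA at 34 °C. Each TEVp single-site mutant (parent TEVp 0) is paired with a single-site variant of the 7-mer TEVs (canonical ENLYFQ|S). The substrate sits between flexible linkers in a Bxb1-sfGFP-TEVs-SsrA fusion, so cleavage stabilises Bxb1 and speeds flipping of a recombination array, read by NGS. The value is the raw area under the fraction-flipped curve over 0-4 h after rhamnose induction (AUC4h), with ≥20 reads per time point. It is not background-subtracted; inactive controls average about 0.047.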
# 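Note: Bxb1 expression induced with 0.2% (w/v) L-rhamnose at OD600 near 0.5, cultures sampled hourly, flipped fraction per protease–substrate barcode pair counted by paired-end Illumina sequencing.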
Variant,area with substrate ENLCFQS,area with substrate ENLEFQS,area with substrate ENLFFQS,area with substrate ENLKFQS,area with substrate ENLLFQS,area with substrate ENLNFQS,area with substrate ENLPFQS,area with substrate ENLQFQS,area with substrate ENLSFQS,area with substrate ENLVFQS,area with substrate ENLDFQS,area with substrate ENLGFQS,area with substrate ENLHFQS,area with substrate ENLMFQS,area with substrate ENLRFQS,area with substrate ENLWFQS,area with substrate ENLTFQS,area with substrate ENLAFQS,area with substrate ENLIFQS
T55P,0.0672,0.0688,0.0904,0.0687,0.0422,0.0604,0.0574,0.067,0.0592,0.0624,–,–,–,–,–,–,–,–,–
H47T,0.0524,0.0462,0.0737,0.0476,0.0567,0.0564,0.0391,0.0575,0.0414,0.0949,0.0675,0.05,0.0597,0.0605,0.0574,0.0415,–,–,–
S127R,0.073,–,0.0794,0.0981,–,0.0592,–,–,–,–,0.0621,0.0667,0.0613,–,0.0799,–,–,–,–
D149E,0.0773,0.0826,0.0822,0.076,0.0817,0.0635,0.0529,0.0756,0.0531,–,0.0554,–,–,0.0803,0.0623,0.0696,–,–,–
D149W,0.0799,0.0655,0.0778,0.0693,–,0.0633,0.0456,–,0.048,–,0.0741,0.0451,0.0591,–,0.065,–,–,–,–
L99A,0.0678,0.0573,0.0832,–,–,0.0569,–,0.0505,0.0681,0.077,–,0.0581,–,–,0.0651,–,0.0621,–,–
F6L,0.0654,0.0747,0.043,–,–,0.0501,–,0.0679,0.0641,–,0.0694,0.0571,0.0747,–,–,–,–,–,–
Q234P,–,–,0.0951,0.0664,0.0675,0.0714,0.043,0.0525,0.0547,0.0901,0.0527,–,–,–,0.0665,0.0711,–,0.0831,–
Q234E,0.0691,–,0.0772,0.0837,0.0809,0.0696,0.0711,–,0.0597,–,0.0668,–,0.0713,0.0695,0.0751,–,–,0.0649,–
R106C,0.0532,0.0697,0.11,0.065,–,0.0656,0.0703,0.0736,0.0628,–,0.0479,–,0.0733,0.065,0.0793,0.072,–,–,–
A232I,–,0.0713,–,0.109,–,–,–,0.0721,0.0432,–,0.059,–,–,–,–,0.0666,–,0.0928,0.0937
E231Y,–,0.0618,0.0727,–,0.0623,0.056,–,–,–,–,–,–,0.0759,0.0682,0.0722,–,–,0.0454,–
Q146G,0.075,0.0654,0.0867,–,0.0867,–,–,–,–,–,0.0615,–,0.0708,0.0827,0.0844,0.0662,–,–,0.073
V220K,0.0822,–,0.0776,0.0475,0.0708,0.0569,0.0446,0.0693,0.0569,–,0.0713,–,0.0676,0.0732,0.0881,0.0714,–,0.0544,–
F65C,0.0394,0.145,0.0733,0.0692,0.0727,0.0901,0.0709,0.0632,0.0901,–,0.0602,0.0636,0.0741,0.0938,–,0.0743,–,–,0.103
W141D,0.0572,0.0572,0.0613,0.0655,0.064,0.0554,–,–,–,0.0617,0.0396,–,0.0616,–,0.0577,0.0564,–,–,0.0431

Variant,area with substrate ENLCFQS,area with substrate ENLEFQS,area with substrate ENLFFQS,area with substrate ENLKFQS,area with substrate ENLLFQS,area with substrate ENLNFQS,area with substrate ENLPFQS,area with substrate ENLQFQS,area with substrate ENLSFQS,area with substrate ENLVFQS,area with substrate ENLDFQS,area with substrate ENLGFQS,area with substrate ENLHFQS,area with substrate ENLMFQS,area with substrate ENLRFQS,area with substrate ENLWFQS,area with substrate ENLTFQS,area with substrate ENLAFQS,area with substrate ENLIFQS
K7R,0.0648,–,0.0807,0.0759,–,–,–,0.0872,0.065,–,–,0.0708,0.0725,–,–,0.0429,–,–,–
K7T,0.0632,0.0404,0.0461,–,–,0.0627,0.0662,–,–,–,–,–,0.0481,–,–,–,–,–,–
F226P,–,–,–,–,–,0.0389,–,–,0.0718,0.0869,0.0644,–,0.0771,–,0.0413,–,–,0.0862,0.0868
F226L,–,0.0896,0.0816,0.0813,–,0.0737,0.0478,0.0698,–,0.0778,0.0652,0.0657,–,–,–,–,–,0.067,0.102
M83N,0.0522,–,0.0583,0.0381,–,–,0.0477,0.0528,0.0427,0.0561,0.0585,0.0556,0.0484,0.0556,0.0346,0.058,–,–,0.0473
R87L,0.0701,–,0.066,0.0745,–,0.0537,0.0686,–,0.0615,0.08,0.0526,0.0732,0.0706,–,0.0698,0.0757,–,–,0.0653
I85Q,0.0395,0.0574,0.0409,0.058,–,0.0598,0.0545,–,0.0412,0.0643,–,–,–,0.0658,0.0767,–,–,–,0.0479
F133S,0.0671,–,0.0819,0.0839,–,0.0703,0.0517,–,0.0593,0.0816,0.0679,–,–,0.0758,–,0.0725,–,–,0.0734
D79R,0.0566,0.0616,0.0712,0.0906,0.081,0.0749,–,0.0634,0.0738,0.109,0.0613,0.0741,0.0551,0.0728,0.0775,0.0561,–,–,0.0693
L235W,–,–,0.0925,0.0849,0.0625,0.059,–,–,0.0198,–,–,–,0.0743,–,0.0583,–,–,0.0988,–
L235V,0.075,–,0.0937,–,0.0649,0.0603,–,0.0673,–,–,0.0547,–,–,0.0791,0.0632,–,–,0.0675,–
L235D,0.0917,0.0891,0.0963,–,–,0.0512,–,0.0847,–,–,–,–,–,–,–,–,0.0805,0.0775,–
D82C,0.0511,0.089,0.0608,–,–,0.0632,0.0589,–,0.0691,0.0496,–,0.0866,0.0594,–,–,0.0613,–,–,0.0536
F101M,0.0566,0.0739,0.0613,0.0726,0.0664,0.0644,0.0647,0.0598,–,–,0.0615,–,0.101,–,–,–,–,–,0.0837
G37D,0.0431,0.035,0.0512,0.0456,–,0.0497,0.0516,0.0664,0.038,–,0.0578,0.0449,0.0497,0.0321,–,0.0343,–,–,0.0426
